Source: article PMC3675137
Where a chain is given by its changes, count along the chain named. No constants are given. Whether binding was seen depends on the method and setting. In cells and extracts the contact can be indirect. Some binding calls cover weakened binding; strength is not graded here. For some assays here: Where a sequence is shown, tags or fusion partners need not be part of it.

The chains behind the UniProt entries cited, without tags or fusion partners. Where a name states a change or a piece, a line headed by the entry shows the natural chain unless it says otherwise.
UniProt P48432: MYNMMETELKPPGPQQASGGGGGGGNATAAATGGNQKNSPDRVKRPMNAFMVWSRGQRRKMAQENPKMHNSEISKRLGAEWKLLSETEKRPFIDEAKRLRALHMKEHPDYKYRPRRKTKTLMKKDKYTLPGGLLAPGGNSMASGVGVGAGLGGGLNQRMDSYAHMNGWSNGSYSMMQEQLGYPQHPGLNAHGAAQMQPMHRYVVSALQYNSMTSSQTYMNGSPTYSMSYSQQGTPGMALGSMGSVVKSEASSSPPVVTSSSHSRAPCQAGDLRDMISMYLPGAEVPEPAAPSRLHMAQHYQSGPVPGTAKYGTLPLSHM

Columns and labels:
[1] = target: T1, Myc-SATB1 (UniProt Q01826); experiment: co-IP; tagged proteins co-expressed in HEK293T or HEK293A cells; lysis in modified RIPA buffer (50 mM Tris pH 7.4, 150 mM NaCl, 1 mM EDTA, 1% Nonidet P-40, 0.25% Na-deoxycholate); antibody and protein G-agarose overnight at 4°C; Western blot; for Myc-SATB1/Flag-Sox2 also serum-starved cells with DMSO or with LY294002 plus IGF-1
T1 sequence: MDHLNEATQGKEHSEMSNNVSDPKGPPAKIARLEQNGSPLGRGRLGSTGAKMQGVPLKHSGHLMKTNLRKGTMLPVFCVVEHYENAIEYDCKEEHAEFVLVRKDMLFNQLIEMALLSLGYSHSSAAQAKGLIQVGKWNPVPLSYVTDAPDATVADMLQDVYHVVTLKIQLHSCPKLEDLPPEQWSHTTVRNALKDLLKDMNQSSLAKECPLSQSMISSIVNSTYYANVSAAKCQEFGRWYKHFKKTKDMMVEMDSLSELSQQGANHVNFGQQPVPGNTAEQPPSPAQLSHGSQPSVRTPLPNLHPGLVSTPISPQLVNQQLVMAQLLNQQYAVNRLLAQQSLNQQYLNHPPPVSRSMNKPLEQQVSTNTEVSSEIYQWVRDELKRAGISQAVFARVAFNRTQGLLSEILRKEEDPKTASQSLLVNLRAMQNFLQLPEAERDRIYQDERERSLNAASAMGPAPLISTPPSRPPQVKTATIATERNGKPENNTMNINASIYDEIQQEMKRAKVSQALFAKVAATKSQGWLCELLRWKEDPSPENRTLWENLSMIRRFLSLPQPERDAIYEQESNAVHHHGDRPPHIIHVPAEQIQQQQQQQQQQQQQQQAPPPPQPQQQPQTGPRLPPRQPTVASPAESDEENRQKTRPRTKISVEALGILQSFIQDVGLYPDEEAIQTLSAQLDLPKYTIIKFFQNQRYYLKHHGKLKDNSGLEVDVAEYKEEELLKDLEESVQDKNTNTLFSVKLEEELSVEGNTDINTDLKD

[2] = target: T1, Myc-SATB1; experiment: co-IP; Myc-SATB1 and Flag-Sox2 co-transfected, cells serum starved and treated with the PI3K inhibitor LY294002
[3] = target: T2, endogenous SATB1 (mouse (endogenous in F9)) (UniProt Q60611); experiment: co-IP; endogenous SATB1 immunoprecipitated from F9 cell lysates; blots with anti-SATB1 and anti-Sox2
T2 sequence: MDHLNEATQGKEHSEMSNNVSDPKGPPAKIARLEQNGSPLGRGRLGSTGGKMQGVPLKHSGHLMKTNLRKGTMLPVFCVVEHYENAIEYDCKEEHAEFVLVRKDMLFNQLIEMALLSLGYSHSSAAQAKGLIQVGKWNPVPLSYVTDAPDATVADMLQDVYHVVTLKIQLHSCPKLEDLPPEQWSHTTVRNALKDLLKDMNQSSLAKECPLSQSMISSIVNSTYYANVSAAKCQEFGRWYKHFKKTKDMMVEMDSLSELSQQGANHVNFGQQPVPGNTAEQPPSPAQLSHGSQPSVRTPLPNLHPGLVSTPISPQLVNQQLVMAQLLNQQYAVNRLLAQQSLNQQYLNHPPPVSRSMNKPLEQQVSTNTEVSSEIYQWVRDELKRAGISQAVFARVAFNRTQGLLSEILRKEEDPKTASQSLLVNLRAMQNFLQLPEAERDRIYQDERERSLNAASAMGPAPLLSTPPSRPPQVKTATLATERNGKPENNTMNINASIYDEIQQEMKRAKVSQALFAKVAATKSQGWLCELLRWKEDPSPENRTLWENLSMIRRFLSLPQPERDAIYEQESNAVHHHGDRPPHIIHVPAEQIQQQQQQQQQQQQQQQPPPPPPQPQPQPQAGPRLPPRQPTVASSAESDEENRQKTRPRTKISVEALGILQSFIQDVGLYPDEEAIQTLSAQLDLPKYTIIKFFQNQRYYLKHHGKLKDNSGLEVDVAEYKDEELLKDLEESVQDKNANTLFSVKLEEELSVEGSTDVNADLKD

[4] = target: T3, Myc-SATB1S47A (UniProt Q01826); experiment: co-IP; tagged proteins co-expressed in HEK293T or HEK293A cells; lysis in modified RIPA buffer (50 mM Tris pH 7.4, 150 mM NaCl, 1 mM EDTA, 1% Nonidet P-40, 0.25% Na-deoxycholate); antibody and protein G-agarose overnight at 4°C; Western blot; for Myc-SATB1/Flag-Sox2 also serum-starved cells with DMSO or with LY294002 plus IGF-1
T3 sequence: T1 sequence with S47A

[5] = target: T4, Myc-SATB1S47D (UniProt Q01826); experiment: as above
T4 sequence: T1 sequence with S47D

[6] = target: T5, GST-SATB1 1–204 (UniProt Q01826); experiment: pull-down; GST or GST fusion proteins on glutathione-Sepharose beads incubated with precleared lysates of transfected HEK293T cells (modified RIPA buffer), 4°C, 2 h; immunoblot; only the target purified
T5 sequence: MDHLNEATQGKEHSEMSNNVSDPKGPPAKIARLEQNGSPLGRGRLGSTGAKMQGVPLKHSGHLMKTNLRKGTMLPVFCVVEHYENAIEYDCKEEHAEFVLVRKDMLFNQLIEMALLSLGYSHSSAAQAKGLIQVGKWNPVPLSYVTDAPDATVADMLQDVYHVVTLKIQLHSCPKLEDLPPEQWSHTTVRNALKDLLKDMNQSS

[7] = target: T6, GST-SATB1 496–763 (UniProt Q01826); experiment: as above
T6 sequence: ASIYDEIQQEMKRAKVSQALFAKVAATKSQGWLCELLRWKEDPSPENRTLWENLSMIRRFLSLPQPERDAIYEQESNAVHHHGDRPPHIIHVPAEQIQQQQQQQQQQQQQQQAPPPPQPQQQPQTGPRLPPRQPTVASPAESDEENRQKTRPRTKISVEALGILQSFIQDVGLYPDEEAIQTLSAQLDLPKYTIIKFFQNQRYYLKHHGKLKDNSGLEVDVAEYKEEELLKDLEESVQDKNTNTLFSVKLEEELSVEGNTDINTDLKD

[8] = target: T7, GST-SATB1 52–495 (UniProt Q01826); experiment: as above
T7 sequence: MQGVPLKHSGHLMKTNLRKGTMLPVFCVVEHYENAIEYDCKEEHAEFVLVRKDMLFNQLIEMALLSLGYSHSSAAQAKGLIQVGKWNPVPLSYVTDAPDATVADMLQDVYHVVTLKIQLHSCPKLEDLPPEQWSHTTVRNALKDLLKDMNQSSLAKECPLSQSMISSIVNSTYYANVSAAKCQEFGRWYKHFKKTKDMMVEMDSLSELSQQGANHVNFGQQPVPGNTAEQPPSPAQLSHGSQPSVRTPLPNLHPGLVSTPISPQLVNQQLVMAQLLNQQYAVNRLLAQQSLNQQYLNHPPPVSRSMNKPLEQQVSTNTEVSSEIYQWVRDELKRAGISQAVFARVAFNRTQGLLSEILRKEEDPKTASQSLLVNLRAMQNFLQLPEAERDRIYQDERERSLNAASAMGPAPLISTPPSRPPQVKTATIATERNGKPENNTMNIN

Row | Substance | binding [1] | further results
1 | Flag-GFP-tagged Sox2 112–319 (from UniProt P48432 112-319) (domain or fragment) | binds | 
2 | Flag-GFP-tagged Sox2 1–202 (from UniProt P48432 1-202) (domain or fragment) | binds | 
3 | Flag-GFP-tagged Sox2 1–111 (from UniProt P48432 1-111) (domain or fragment) | binds | 
4 | Flag-GFP-tagged Sox2 112–202 (from UniProt P48432 112-202) (domain or fragment) | binds | 
5 | Flag-Sox2 (from UniProt P48432 1-319) | binds | binding [2]: binds weakly
6 | Flag-GFP-tagged Sox2 203–319 (from UniProt P48432 203-319) (domain or fragment) | no binding | 
7 | endogenous Sox2 (from UniProt P48432 1-319) |  | binding [3]: binds
8 | Flag-GFP-tagged Sox2 (full-length) (from UniProt P48432 1-319) | binds | binding [4]: binds; binding [5]: binds
9 | Sox2 (prey of the GST-SATB1 pull-down) (from UniProt P48432 1-319) |  | binding [6]: no binding; binding [7]: no binding; binding [8]: binds
